According to patent US7432045B2 (priority 2003, dated 2008):

Test system: HSV-1 KOS

Compound: CC(C)C[C@H](NC(=O)[C@H](C)NC(=O)[C@H](CC(C)C)NC(=O)[C@H](CC(C)C)NC(=O)[C@@H](NC(=O)[C@H](C)NC(=O)[C@@H]1CCCN1C(=O)[C@H](CC(C)C)NC(=O)[C@H](CC(C)C)NC(=O)[C@H](C)NC(=O)[C@@H](NC(=O)[C@H](C)NC(=O)[C@H](C)NC(=O)[C@H](CCCCN)NC(=O)[C@H](CCCCN)NC(=O)[C@H](CCCNC(=N)N)NC(=O)[C@@H](N)CCCNC(=N)N)C(C)C)C(C)C)C(=O)N[C@@H](CC(C)C)C(=O)N[C@@H](C)C(=O)N1CCC[C@H]1C(=O)O [EB] (H-RRKKAAVALLPAVLLALLAP-OH)
- antiviral activity, EB compared to acyclovir (added one hour prior to infection, high = exceeding 10 μM): greatest antiviral activity

Compound: Nc1nc2c(ncn2COCCO)c(=O)[nH]1 [acyclovir, reference compound]
- antiviral activity, EB compared to acyclovir: highest antiviral activity at low dosages

Read-outs that look alike come from different tables or passages of the source. Peptide text beside a SMILES is read from it.
